According to PubChem BioAssay AID686970 (National Center for Advancing Translational Sciences (NCATS), 2013):
Hit rate of the full screen: of about 360,000 compounds, about 6,000 (1.7%) were called active. Inconclusive means that the source gave no clear call. Such entries were picked first, then a sample of the others. The call rests on the fitted dose curve; in most records, active means well fitted cell-killing curve with a large enough effect; inconclusive means small, poorly fitted or top-dose-only effect, or effect the other way; inactive means flat fitted curve, though single readings scatter. Potencies of inconclusive entries are left out as doubtful fits.

assay: qHTS for induction of synthetic lethality in tumor cells producing 2HG: qHTS for the HT-1080-NT fibrosarcoma cell line; details: HT-1080-NT fibrosarcoma viability, CellTiter-Glo ATP luminescence, 48 h; activity, negative = less viability: at 46.1 µM (top of the series) unless noted;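 further: NT is the 2HG producing partner of a matched IDH1 knockdown line; nearly all actives have a fitted effect of over 55% in size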;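 on activity, negative = less viability: 0% = DMSO-treated cells and -100% = media-only wells without cells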
Procedure, shortened: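 Viability by CellTiter-Glo luminescence after 48 h compound exposure at 37C of HT-1080-NT cells (750/well, RPMI, 5% FBS). % activity scaled between DMSO wells and medium-only wells, then curve-fitted and categorized by curve class.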
Potency means the concentration at half of the fitted maximal effect; tags describe the fitted curve by direction and shape.

Structure (SMILES)	activity, negative = less viability	Potency
Cc1nc(N2CCCCC2)sc1C(=O)c1cccc([N+](=O)[O-])c1	inactive: -12.3%	
CCCCOc1ncnc2c1[nH]c1ccccc12	inactive: -17.5%	
CSCCC(c1nnnn1Cc1ccccc1)N1CCN(C/C=C/c2ccccc2)CC1 (stereo unspecified)		inconclusive [cytotoxic, single point]
N#C/C(=N\Nc1cccc(C(F)(F)F)c1)C(=O)c1ccsc1		active: 4.61 µM
O=c1[nH]c(/C=C/c2ccccc2F)nc2ccccc12		inconclusive [cytotoxic, full curve]
COc1ccc(/C=C\C(=O)O[C@@H]2C(O)C(O[C@@H]3OC(C)[C@H](O[C@@H]4OCC(O[C@H]5O[C@H](CO)[C@@H](O)C(O)C5O)C(O)C4O)C(O)C3O)[C@H](OC(=O)[C@]34CCC(C)(C)C[C@@H]3C3=CCC5[C@@]6(C)CC(O)C(O[C@@H]7OC(CO)C(O)[C@H](O)[C@H]7O)[C@@](C)(C(=O)O)C6CC[C@@]5(C)[C@]3(CO)CC4)O[C@H]2C)cc1 (stereo partly specified)		inconclusive [cytotoxic, single point]
COCCCNC(=O)c1ccc2c3c(onc13)-c1ccccc1C2=O		inconclusive [cytotoxic, single point]
COCCNC(=O)c1cc2nc(-c3ccc(F)cc3)cc(C(F)(F)F)n2n1		inconclusive [rising, partial curve]
O=C(N/N=C\c1ccccn1)C1c2ccccc2Oc2ccccc21	inconclusive: -28.9% [cytotoxic]	
Cc1cccc(CSc2cccc3cccnc23)c1		inconclusive [cytotoxic, single point]
CC(c1nccs1)N(C)C(=O)c1cn(Cc2cccc3ccccc23)nn1 (stereo unspecified)	inactive: 3.04%	
CCCc1cc2c(=O)c(-c3ccc4c(c3)OCCO4)c(C)oc2cc1OS(C)(=O)=O		inconclusive [cytotoxic, single point]
CC1=C(C(=O)N2CCOCC2)C(c2ccc(OC(F)F)cc2)NC(=S)N1c1ccccc1 (stereo unspecified)	inactive: 5.53%	
Oc1ccc(C[C@H]2CN([C@@H](Cc3cccc(O)c3)CN3CCC[C@@H]3CN3C(=S)NC[C@@H]3Cc3ccccc3)C(=S)N2CC2CCCCC2)cc1		active: 18.4 µM
CC(C)(c1ccccc1)c1ccc(OCCN)cc1		inconclusive [cytotoxic, single point]
CC(C)NC(=O)CN1CCC(c2nc3ccccc3[nH]2)CC1	inactive: -0.555%	
Clc1ccc(-c2csc(N/N=C/c3cccnc3)n2)c(Cl)c1	inconclusive: -45.9%	
COc1cccc(NC(=O)C2CCCN(S(=O)(=O)c3cccc4nonc34)C2)c1 (stereo unspecified)	inactive: -17.7%	
COc1ccccc1CN(CC(=O)NCc1ccc2c(c1)OCO2)C(=O)c1ccc2c(c1)OCCO2	inactive: 2.12%	
CCOc1ccc(NC(=NCc2ccc3c(c2)OCO3)SC2CC(=O)N(c3ccc(OCC)cc3)C2=O)cc1 (stereo unspecified)		inconclusive [cytotoxic, single point]
Cc1nc2sc(-c3ccccc3)cc2c(=O)[nH]1		inconclusive [cytotoxic, single point]
N#Cc1ccc(N2CCOCC2)nc1	inactive: 13.2%	
COc1ccc2c(c1)Sc1ccccc1N2	inactive: -10.6%	
CC1(C(=O)NS(=O)(=O)c2cccc(F)c2)CCN1C(=O)Cc1ccc(-c2ccccc2)cc1 (stereo unspecified)	inactive: -23%	

Structure (SMILES)	activity, negative = less viability	Potency
CN(C(=S)NC(=O)Cc1ccccc1)c1ccccc1		inconclusive [cytotoxic, single point]
O=C1CCc2cc(S(=O)(=O)NCc3ccccc3Cl)cc3c2N1CC3	inactive: 4.67%	
CCCCOc1ccc(C(=O)N(Cc2ccco2)C2CCS(=O)(=O)C2)cc1 (stereo unspecified)	inactive: -0.334%	
S=c1[nH]nc(-c2cc(-c3ccccc3)n[nH]2)n1/N=C/C(Br)=C/c1ccccc1		active: 7.31 µM
CCc1ccc(C(=O)C(C)OC(=O)Cc2n[nH]c(=O)c3ccccc23)cc1 (stereo unspecified)		inconclusive [cytotoxic, partial curve]
CC(=O)N1CCOc2ccc(S(=O)(=O)N3CCN(c4cccc(C(F)(F)F)c4)CC3)cc21		inconclusive [cytotoxic, single point]
CN(Cc1cccc2cnccc12)C(=O)c1cc(COc2ccc(F)cc2Cl)on1		inconclusive [cytotoxic, single point]
COc1ccccc1-c1csc(C(O)(c2ccccc2)C(F)(F)F)n1 (stereo unspecified)		inconclusive [cytotoxic, single point]
CN(C)CCNc1nc2sc3c(c2c(=O)n1-c1ccc(F)cc1)CCCCC3		active: 23.1 µM
CN(C)c1cccc(C(=O)Nc2cccc(F)c2)c1	inactive: 8.12%	
CCn1c2ccccc2c2cc(N=C3SC(CC(=O)Nc4ccccc4)C(=O)N3C)ccc21 (stereo unspecified)		inconclusive [cytotoxic, single point]
COc1cc(C(=O)N2CCN(c3ncnc4sc(C)c(C)c34)CC2)cc(OC)c1OC		inconclusive [cytotoxic, single point]
C[C@H](CO)N1C[C@H](C)[C@@H](CN(C)CC2CCCCC2)Oc2ccc(NS(C)(=O)=O)cc2C1=O	inactive: 3.65%	
CCCn1c(SCC(=O)Nc2cc(Cl)ccc2OC)nc(O)cc1=O	inactive: -0.471%	
O=C(Nc1csc([N+](=O)[O-])c1)Nc1ccccc1Cl		inconclusive [cytotoxic, single point]
CCOc1cccc2sc(N(CCN(C)C)C(=O)c3cc4ccccc4cc3OC)nc12		inconclusive [cytotoxic, single point]
Clc1ccc(-c2nnc(-c3cccnc3)o2)cc1		inconclusive [rising, partial curve, poor fit]
Cc1c(C)c2ccc(OC(C)C(=O)NC3CCN(Cc4ccccc4)CC3)cc2oc1=O (stereo unspecified)	inactive: -22.3%	
COc1ccc(-c2csc(-c3ccc(O)cc3)n2)cc1		active: 5.17 µM
Cc1occc1-c1nnc(SCC(=O)Nc2nc(-c3ccccc3)cs2)o1		inconclusive [cytotoxic, single point]
O=C(/C=C/c1ccco1)NC(=S)Nc1ccc(O)c(-c2nc3ccccc3s2)c1		inconclusive [cytotoxic, full curve, poor fit]
O=C(c1ccccc1)c1c2c(cc3sc4ccccc4[n+]13)-c1cccc3cccc-2c13		inconclusive [cytotoxic, single point]
Oc1ccccc1CNCC12CC3CC(CC(C3)C1)C2		inconclusive [cytotoxic, single point]
Cc1cc(Cl)cc(C)c1OCCOCCNCc1ccccc1		inconclusive [cytotoxic, single point]

Structure (SMILES)	activity, negative = less viability	Potency
CCCNC(=O)NS(=O)(=O)c1ccc(Cl)cc1	inactive: -0.36%	
Cc1ccc(C2N(C)C(=O)c3ccccc3N2C)cc1 (stereo unspecified)		inconclusive [cytotoxic, single point]
CC(C)(C)C(=O)/C=C/Nc1ccccc1O		inconclusive [cytotoxic, partial curve]
COc1ccc(NC(=O)C2CCN(S(=O)(=O)c3c(C)noc3C)CC2)cc1Cl		inconclusive [cytotoxic, single point]
CCOc1ccc(N(CC(=O)Nc2cccc(Cl)c2)S(=O)(=O)c2c(C)noc2C)cc1		inconclusive [cytotoxic, single point]
Cc1cc(CNC[C@H]2O[C@@H](n3cnc4c(N)ncnc43)[C@H](O)[C@@H]2O)no1		inconclusive [rising, single point]
Cc1ccc2oc(=O)c3cc(C(=O)NCCCN4CCCCCC4)sc3c2c1	inactive: -23.5%	
O=C(Nc1ccc(Cl)c(Cl)c1)N[C@@H]1CC[C@@H](CCn2cc(C3CCCCC3)nn2)O[C@@H]1CO		active: 20.6 µM
Cc1ccccc1Cn1nnc(-c2ccc(F)cc2)n1	inactive: 11.6%	
Cc1ccc(N(C(=O)Cn2nnc(-c3ccccc3F)n2)C(C(=O)NC2CCCC2)c2ccncc2)cc1 (stereo unspecified)	inactive: -1.11%	
Cc1noc(C)c1CCC(=O)NC1CCCN(Cc2ccc(CC(C)C)cc2)C1 (stereo unspecified)	inactive: -12.8%	
CN1C(=O)/C(=C\c2ccccc2OCc2ccccc2)SC1=S	inactive: 0.365%	
CCOC(=O)C1CCN(C(c2ccccn2)c2c(C)[nH]c3ccccc23)CC1 (stereo unspecified)		inconclusive [cytotoxic, single point]
CCOC(=O)c1cc([N+](=O)[O-])c([N+](=O)[O-])cc1NC(C)=O		active: 7.31 µM
Cc1cccc(CC(C)NC(=O)CCc2nnc(-c3ccccc3)o2)n1 (stereo unspecified)	inactive: 6.69%	
CC(=O)c1c(C)[nH]c(C(=O)OCC(=O)Nc2ccc(Cl)c(S(=O)(=O)N(C)C)c2)c1C		inconclusive [cytotoxic, single point]
CN1CCN(c2cc(-c3cccc(C(=O)O)c3)nc3ccnn23)CC1		inconclusive [rising, single point]
Cc1nn(-c2ccccc2)c(Cl)c1/C=N/NC(N)=O	inactive: 8.86%	
COc1cc(C(=O)Nc2ccc3ccccc3c2)cc(OC)c1OC		active: 1.3 µM
COC(=O)c1ccc2nc(-c3ccc(OC)c(OC)c3)c(Cc3ccc(C)cc3)n2c1		inconclusive [cytotoxic, single point]
CC(=O)O[C@]1(C(C)=O)CC[C@H]2[C@@H]3C=C(Cl)C4=CC(=O)CC[C@]4(C)[C@H]3CC[C@@]21C	inactive: 5.63%	
COc1ccc2cc3c(N)nn(C(=O)c4ccccc4Cl)c3nc2c1	inconclusive: -30% [cytotoxic]	
COc1ccc(-c2sc3ccccc3c2-c2ccc(OCCN(C)C)cc2)cc1		active: 23.1 µM
